Assay results from PubChem BioAssay (NCI).
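Assay format: 96-well plates, 48-hour exposure. GI50 marks 50% less growth.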 For part of its entries the source gives two or more results. Only these are listed. The source may hold further records. For part of these data: Records of one sample usually come from different ranges of test concentrations, not given here; some values may only mark the edge of a range.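 TGI denotes the concentration required for complete inhibition of growth.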 For part of these data: The records of an entry repeat one measurement across runs, samples, wells, individuals or studies. Marks in square brackets tell the records apart. Letters hold for one entry only.

Columns and labels:
Assay in all cases: NCI anticancer screen, dose series, 48 h
[1] = tested on: COLO 205 colon
[2] = tested on: HOP-62 NSCLC
[3] = tested on: IGROV1 ovarian
[4] = tested on: MDA-N
[5] = tested on: NCI-H23 lung
[6] = tested on: NCI-H522 lung
[7] = tested on: RPMI-8226 leukemia
[8] = tested on: SK-OV-3 ovarian
[9] = tested on: SNB-75 CNS
[10] = tested on: SW-620 colon
[11] = tested on: T-47D breast
[12] = tested on: CAKI-1 renal
[13] = tested on: DU-145 prostate
[14] = tested on: HL-60(TB) leukemia
[15] = tested on: K-562 leukemia
[16] = tested on: SR leukemia

## CCc1c2c(nc3cc4c(c(N)c13)OCO4)-c1cc3c(c(=O)n1C2)COC(=O)[C@]3(O)CC
[1]
  TGI: 5 µM and > 100 µM
[2]
  TGI: 13 nM and 1.42 µM
[3]
  TGI: 3.79 µM and > 100 µM
[4]
  GI50: 55.4 nM and 2.98 µM
[5]
  TGI: 2.15 µM and 111 nM
[6]
  GI50: 2.19 nM and 39.1 nM
[7]
  GI50: 1.39 nM and 23.6 nM
[8]
  TGI: 1.84 µM and > 100 µM
[9]
  TGI: 3.8 µM and > 100 µM
[10]
  GI50: < 1 nM and 13.7 nM
[11]
  TGI: 15.1 nM and > 100 µM

## CC(/C=C/C(=O)c1sc(-n2nc(-c3ccccc3)cc2-c2ccccc2)nc1C)=C\c1ccccc1
[9]
  TGI: 9.46 µM and > 100 µM

## C[C@H](N)C(=O)N[C@@H]1[C@H]2C(=C(O)C[C@@H](O)[C@@H]2O)C(=O)O[C@]1(C)C(Cl)Cl
[12]
  TGI: 15.7 µM and 1.04 µM
[13]
  TGI: 14.4 µM and 1.17 µM
[14]
  TGI: > 31.6 µM [mean of 2 tests] and 2.13 µM [mean of 6 tests]
[4]
  TGI: 11.9 µM and 721 nM

## O=C(c1ccc(OCCN2CCCCC2)cc1)c1c(-c2ccc(O)cc2)sc2cc(O)ccc12
[15]
  TGI: > 100 µM [sample A, 1 test] and 7.26 µM [sample B, 1 test]
[16]
  TGI: 5.25 µM [sample A, mean of 2 tests] and > 100 µM [sample B, 1 test]
